# This is one part of the list. The data describe in vitro nicking of single-stranded DNA by Rep domains (1 h at 37 °C, 3 µM enzyme); the outer parts of the 90-letter strands are left off. Numbers give uncut DNA relative to the enzyme-free pool, as log2; the lower, the more was cut; hits are not called. Shares of all reads are compared; values above 0 arise when much of the pool is cut.
# Tested on: T1, Rep nickase domain of maize striate mosaic virus
# T1 sequence (protein, residues 1-117, tag omitted): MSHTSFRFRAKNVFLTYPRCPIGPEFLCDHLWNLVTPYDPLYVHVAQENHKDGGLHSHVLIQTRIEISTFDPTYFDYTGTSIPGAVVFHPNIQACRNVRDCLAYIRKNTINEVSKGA
# Test: uncleaved DNA left, log2 of reads against the no-enzyme library (log2 ratio); higher = less cleavage (more negative = more Rep cleavage of the k-mer); sequences stand for … in CTCGTCCG…ACCGGAGA
# Experimental: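 A pool of 90-nt single-stranded DNAs with seven random bases just before the constant AC of the nick site (name = the seven bases) was cut by 3 µM recombinant His6-SUMO-tagged Rep nickase domain (300 nM DNA, 50 mM HEPES pH 8.0, 50 mM NaCl, 1 mM MnCl2, 1 h, 37 °C, three replicates). Uncut DNA was amplified and sequenced.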
row,Sequence,uncleaved DNA left (log2)
1,GTTTCTG,0.763
2,ACGGCGT,-0.523
3,ATGAAGT,-0.965
4,GAAATTT,0.433
5,GACTAAT,1.16
6,CAGACGG,1.44
7,CGTCGTT,-0.578
8,CCGTGCG,-0.0244
9,CACTCGC,-1.05
10,AGGGTCA,1.32
11,ATGTCTC,-0.104
12,CTAATTG,-1.19
13,GGTAGGT,1.85
14,GTAGCAC,1.22
15,GTTTGAT,1.66
16,GCGCGCG,-0.472
17,CTAGGCA,-0.507
18,TTGGGTT,0.504
19,CACCCGT,-1.01
20,ACTAAGG,-0.822

row,Sequence,uncleaved DNA left (log2)
1,CCAACAG,-1.07
2,TGATACG,-1.2
3,TTCTCGC,-1.18
4,TACCGCG,-0.491
5,GCGGCTT,1.67
6,CACAATC,-0.466
7,GATTTAG,-0.98
8,AACTTCC,-0.647
9,CATCACT,-0.992
10,TGTACAT,2
11,AGCTTGT,0.73
12,CGCCGTC,-0.274
13,CGGCTTC,0.536
14,ATAGCCC,-0.508
15,CCATGCT,-0.972
16,CTACCAT,-0.627
17,AGGTTGG,-0.899
18,TCACGCA,-1.03
19,ACGTGAG,-0.945
20,CGCCTCG,-0.749
